Results on seven molecules are retold here after ChEMBL document CHEMBL1961873, “Compounds: GSK PKIS; Assays: Nanosyn kinase panel” (2012).

For assay [1], the target named is T1, 3-phosphoinositide-dependent protein kinase 1 (Homo sapiens) (UniProt O15530).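 Note: values are mean inhibition of PDK1.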
T1 sequence (whole entry): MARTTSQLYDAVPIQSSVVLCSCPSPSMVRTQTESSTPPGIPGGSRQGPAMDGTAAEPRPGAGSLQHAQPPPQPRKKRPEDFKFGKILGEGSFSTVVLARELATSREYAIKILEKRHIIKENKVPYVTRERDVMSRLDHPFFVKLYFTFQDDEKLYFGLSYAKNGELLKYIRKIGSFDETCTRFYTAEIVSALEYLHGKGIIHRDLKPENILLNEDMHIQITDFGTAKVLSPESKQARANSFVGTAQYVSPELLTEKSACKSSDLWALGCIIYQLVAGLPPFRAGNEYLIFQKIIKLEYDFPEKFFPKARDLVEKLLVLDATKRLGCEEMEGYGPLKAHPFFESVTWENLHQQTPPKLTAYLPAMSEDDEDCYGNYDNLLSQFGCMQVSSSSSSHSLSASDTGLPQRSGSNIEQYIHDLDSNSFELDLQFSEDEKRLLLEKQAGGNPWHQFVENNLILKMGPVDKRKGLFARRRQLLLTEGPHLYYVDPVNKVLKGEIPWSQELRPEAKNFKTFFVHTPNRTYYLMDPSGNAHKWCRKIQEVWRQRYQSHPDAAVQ
Particulars: at 0.1 µM.

Assay [2] concerns the target cAMP-dependent protein kinase catalytic subunit alpha (Homo sapiens) (UniProt P17612). As to conditions: at 0.1 µM.
Assay [3] has the same target. Particulars: at 1 µM.
The target of assay [4] is Protein kinase C alpha type (Homo sapiens) (UniProt P17252). As to conditions: at 0.1 µM.
Assay [5] shares this target. As to conditions: at 1 µM.
The target in assay [6] is Protein kinase C beta type (Homo sapiens) (UniProt P05771). Particulars: at 0.1 µM.
The target is the same in assay [7]. As to conditions: at 1 µM.
Assay [8] has as its target Protein kinase C eta type (Homo sapiens) (UniProt P24723). As to conditions: at 0.1 µM.
Assay [9] shares this target. As to conditions: at 1 µM.
Assay [10] addresses Protein kinase C gamma type (Homo sapiens) (UniProt P05129). Particulars: at 0.1 µM.
The target is the same in assay [11]. As to conditions: at 1 µM.
Assay [12] addresses T2, Protein kinase C iota type (Homo sapiens) (UniProt P41743).
T2 sequence (whole entry): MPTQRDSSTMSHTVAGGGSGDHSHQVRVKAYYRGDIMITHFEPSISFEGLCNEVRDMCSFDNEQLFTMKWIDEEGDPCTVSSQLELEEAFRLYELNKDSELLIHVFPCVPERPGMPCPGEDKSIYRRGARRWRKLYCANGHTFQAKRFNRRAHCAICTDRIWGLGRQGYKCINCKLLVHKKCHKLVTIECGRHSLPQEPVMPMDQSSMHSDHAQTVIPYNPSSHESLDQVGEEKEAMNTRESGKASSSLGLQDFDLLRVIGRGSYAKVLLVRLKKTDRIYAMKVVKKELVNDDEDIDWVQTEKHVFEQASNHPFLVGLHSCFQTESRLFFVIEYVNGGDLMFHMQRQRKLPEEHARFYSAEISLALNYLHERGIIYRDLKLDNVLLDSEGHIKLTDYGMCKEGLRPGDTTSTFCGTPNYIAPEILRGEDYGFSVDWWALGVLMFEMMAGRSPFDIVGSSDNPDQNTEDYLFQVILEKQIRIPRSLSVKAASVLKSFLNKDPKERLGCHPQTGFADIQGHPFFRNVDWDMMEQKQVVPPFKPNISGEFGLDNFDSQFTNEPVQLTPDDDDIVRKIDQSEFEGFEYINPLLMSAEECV
As to conditions: at 0.1 µM.

For assay [13], the target named is T2, Protein kinase C iota type (Homo sapiens). Particulars: at 1 µM.
Assay [14] addresses Protein kinase C theta type (Homo sapiens) (UniProt Q04759). As to conditions: at 0.1 µM.
Assay [15] shares this target. As to conditions: at 1 µM.
In assay [16] the target is Protein kinase C beta type (Homo sapiens) (UniProt P05771). As to conditions: at 0.1 µM. This is another data set of the same source.
Assay [17] shares this target. As to conditions: at 1 µM. The source holds these as a separate data set.
Assay [18] has as its target T3, Serine/threonine-protein kinase D1 (Homo sapiens) (UniProt Q15139).
T3 sequence (whole entry): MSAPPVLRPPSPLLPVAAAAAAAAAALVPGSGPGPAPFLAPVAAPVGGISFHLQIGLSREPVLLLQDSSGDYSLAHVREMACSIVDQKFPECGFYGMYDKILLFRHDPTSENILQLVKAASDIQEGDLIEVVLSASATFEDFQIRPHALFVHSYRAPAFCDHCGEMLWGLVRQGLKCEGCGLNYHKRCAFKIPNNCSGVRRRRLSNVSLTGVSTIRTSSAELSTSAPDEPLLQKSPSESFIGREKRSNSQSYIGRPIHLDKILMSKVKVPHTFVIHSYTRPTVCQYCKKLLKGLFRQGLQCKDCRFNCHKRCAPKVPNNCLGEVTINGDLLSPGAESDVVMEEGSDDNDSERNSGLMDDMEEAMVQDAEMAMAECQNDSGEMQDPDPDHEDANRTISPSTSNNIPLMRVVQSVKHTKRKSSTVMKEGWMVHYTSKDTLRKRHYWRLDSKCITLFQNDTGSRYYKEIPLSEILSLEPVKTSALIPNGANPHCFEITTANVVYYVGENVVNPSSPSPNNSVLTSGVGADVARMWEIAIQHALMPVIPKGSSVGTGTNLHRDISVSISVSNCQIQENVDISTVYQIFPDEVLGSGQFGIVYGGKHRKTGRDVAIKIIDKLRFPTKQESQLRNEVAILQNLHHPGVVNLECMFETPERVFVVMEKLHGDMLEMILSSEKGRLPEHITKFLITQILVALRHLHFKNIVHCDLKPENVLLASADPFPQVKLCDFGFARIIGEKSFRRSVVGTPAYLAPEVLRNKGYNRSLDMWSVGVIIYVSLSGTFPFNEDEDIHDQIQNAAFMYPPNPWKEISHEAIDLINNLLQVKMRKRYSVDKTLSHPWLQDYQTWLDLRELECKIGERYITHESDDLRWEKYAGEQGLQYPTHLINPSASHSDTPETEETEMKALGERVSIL
Particulars: at 0.1 µM.

For assay [19], the target named is T3, Serine/threonine-protein kinase D1 (Homo sapiens). As to conditions: at 1 µM.
The target in assay [20] is T4, Serine/threonine-protein kinase D2 (Homo sapiens) (UniProt Q9BZL6).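 Note: reported percent inhibition values are means, part of the GSK PKIS kinase panel screen.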
T4 sequence (whole entry): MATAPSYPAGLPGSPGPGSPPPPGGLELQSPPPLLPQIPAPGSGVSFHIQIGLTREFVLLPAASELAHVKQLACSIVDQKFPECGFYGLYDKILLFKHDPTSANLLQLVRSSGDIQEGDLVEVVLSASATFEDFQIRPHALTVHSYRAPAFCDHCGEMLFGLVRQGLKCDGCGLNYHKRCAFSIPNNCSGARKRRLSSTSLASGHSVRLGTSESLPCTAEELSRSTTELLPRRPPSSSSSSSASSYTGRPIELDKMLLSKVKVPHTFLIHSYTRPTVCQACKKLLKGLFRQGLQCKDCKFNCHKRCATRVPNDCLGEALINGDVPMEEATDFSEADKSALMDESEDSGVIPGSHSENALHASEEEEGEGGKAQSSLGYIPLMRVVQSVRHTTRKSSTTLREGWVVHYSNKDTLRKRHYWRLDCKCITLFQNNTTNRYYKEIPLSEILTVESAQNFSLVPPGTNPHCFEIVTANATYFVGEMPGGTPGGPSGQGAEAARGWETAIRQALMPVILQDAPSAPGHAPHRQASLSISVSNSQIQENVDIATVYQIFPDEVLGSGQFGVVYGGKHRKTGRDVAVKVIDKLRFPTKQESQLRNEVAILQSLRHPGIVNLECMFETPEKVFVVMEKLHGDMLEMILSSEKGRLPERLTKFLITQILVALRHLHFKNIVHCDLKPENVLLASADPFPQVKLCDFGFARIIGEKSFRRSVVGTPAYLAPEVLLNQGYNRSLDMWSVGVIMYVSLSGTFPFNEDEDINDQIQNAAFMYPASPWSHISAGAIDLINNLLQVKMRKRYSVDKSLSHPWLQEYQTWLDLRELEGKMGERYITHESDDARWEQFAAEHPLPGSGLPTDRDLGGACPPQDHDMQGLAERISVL
Particulars: at 0.1 µM.

For some assays here: This list holds what a sample rich in strong results left over. Only a part is listed here, and it is no random draw.

As for `Fc1ccc(-c2ncn(C3CCNCC3)c2-c2ccnc(Oc3ccc(Cl)cc3)n2)cc1`, the inhibition – broadly, the change of the read-out against control, counted positive when it falls – in [1] was -0.6%; in assay [2], 7.91%; in assay [3] it was 44.7%; in assay [4] it was 0.46%; in assay [5], 2.11%; in assay [6] it was 1.12%. Moreover, the inhibition is 8.1% in assay [7]; 3.99% in assay [8]; 3.69% in assay [9]; -0.24% in assay [10]; 1.3% in [11]; 1.87% in assay [12]. Also, the inhibition in [13] is 1.94%; in [14], 0.79%; in assay [15] it was 2.16%; in [16], 0.33%; in assay [17] it was 5.01%; in assay [18], -0.41%. Moreover, the inhibition in [19] came to 1.79%; in assay [20] it was 1.44%.

Regarding `Fc1ccc(-c2ncn(C3CCNCC3)c2-c2ccnc(Oc3cccc(F)c3)n2)cc1`, the inhibition was 1.28% in assay [1]; 6.22% in assay [2]; 35.4% in assay [3]; 1.31% in assay [4]; 4.73% in assay [5]; 2.31% in assay [6]. In addition, the inhibition in assay [7] worked out at 8.71%; in assay [8] it was 3.44%; in [9] it was 5.74%; in assay [10], 2.57%; in assay [11], 7.29%; in [12], 2.67%. Further, the inhibition in assay [13] stood at 2.89%; in [14], 3.01%; in [15], 5.32%; in [16], 1.84%; in assay [17], 6.85%; in [18] it was 4.11%. Moreover, the inhibition in assay [19] stood at 7.47%; in assay [20] it was 4.03%.

With `CC(C)(C)c1ccc(Oc2nccc(-c3c(-c4ccc(F)cc4)ncn3C3CCNCC3)n2)cc1`, the inhibition in assay [1] came to 1.76%; in assay [2] it was 4.03%; in [3], 20.7%; in assay [4], 0.9%; in assay [5], 4.89%; in assay [6], 0.73%. For the same molecule, the inhibition is 3.55% in [7]; 5.31% in assay [8]; 5.77% in assay [9]; 2.31% in [10]; 6.93% in assay [11]; 2.41% in assay [12]. The inhibition in assay [13] came out at 2.2%; in assay [14] it was 1.98%; in [15], 3.16%; in [16], 0.95%; in [17], 5.68%; in assay [18] it was 3.14%. In addition, the inhibition in assay [19] amounted to 10.4%; in [20], 3.64%.

For the molecule `COc1ccccc1C1=C(Nc2ccccc2)C(=O)NC1=O`, the inhibition in assay [1] turned out to be 3.16%; in [2], 1.28%; in [3] it was 1.88%; in [4], 1.1%; in assay [5], 9.05%; in [6] it was 2.3%. Also, the inhibition worked out at 16.9% in [7]; 2.58% in [8]; 7.31% in assay [9]; 5.14% in assay [10]; 3.89% in [11]; 1.03% in [12]. Moreover, the inhibition is 0.39% in assay [13]; 2.01% in assay [14]; 7.77% in assay [15]; 5.42% in [16]; 24.7% in assay [17]; 2.56% in [18]. For the same molecule, the inhibition stood at 4.49% in [19] and 7.77% in [20].

As to `O=C(O)c1ccc(Oc2nccc(-c3c(-c4ccc(F)cc4)ncn3C3CCNCC3)n2)cc1`, the inhibition in assay [1] is -0.16%; in assay [2] it was 4.08%; in assay [3], 10.3%; in [4], 0.88%; in assay [5] it was 1.21%; in assay [6], 1.67%. The inhibition in assay [7] turned out to be 2.29%; in assay [8], 4.1%; in assay [9] it was 5.29%; in [10] it was 2.37%; in assay [11], 1.91%; in assay [12], 1.53%. In addition, the inhibition came out at 2.01% in [13]; 2.88% in assay [14]; 3.16% in assay [15]; 2.77% in assay [16]; 3.57% in [17]; 5.26% in assay [18]. Also, the inhibition in assay [19] came out at 6.33%; in [20], 4.51%.

Take `Fc1ccc(-c2ncn(C3CCNCC3)c2-c2ccnc(Oc3cccc(C(F)(F)F)c3)n2)cc1`: the inhibition in assay [1] was 1.95%; in assay [2], 2.76%; in assay [3] it was 6.59%; in [4], 0.04%; in assay [5] it was 3.09%; in assay [6] it was 0.77%. Moreover, the inhibition in assay [7] was found to be 3.8%; in assay [8], 6.23%; in assay [9], 3.59%; in [10], 0.59%; in assay [11] it was 3.52%; in assay [12], 4.13%. For the same molecule, the inhibition in assay [13] stood at 3.51%; in [14] it was 2.88%; in assay [15] it was 2.89%; in [16], 2.34%; in [17], 4.66%; in assay [18], 4.47%. The results for the inhibition in [19] and in assay [20] were 7.95% and 4.73%, respectively.

On to `Fc1ccc(Oc2nccc(-c3c(-c4ccc(F)cc4)ncn3C3CCNCC3)n2)cc1`, for which the inhibition in assay [1] was 0.43%; in assay [2], 0.91%; in assay [3], 15.2%; in assay [4], -3.28%; in assay [5], -2.01%; in [6], 1.77%. Besides, the inhibition came out at 4.96% in assay [7]; 3.18% in assay [8]; 5.19% in assay [9]; 0.91% in [10]; 2.24% in assay [11]; 1.16% in assay [12]. For the same molecule, the inhibition in assay [13] came to 1.53%; in assay [14], 2.43%; in [15], 2.77%; in assay [16], 2%; in [17] it was 3.88%; in assay [18], 0.15%. Moreover, the inhibition in assay [19] was 1.01%; in assay [20], -0.17%.
